{"source": "PubChem BioAssay AID588855", "about": "(National Center for Advancing Translational Sciences (NCATS), 2011)", "note": "Several values for one entry are separate records, joined by “and”; a condition that tells them apart may be missing. Identical values can stand only once. About 5,000 (1.2%) of roughly 410,000 compounds were called active. The shares of active, inactive and inconclusive entries below differ from those in the screen. Calls follow the shape of the dose curve; as a rule, active = well fitted inhibition curve with a large enough effect; inconclusive = small, poorly fitted or top-dose-only effect; inactive = no such curve, though single readings can be large or run the other way. Potencies of inconclusive entries are doubtful fits and often do not repeat. Potency is read from the fitted curve at half-maximal effect; tags tell the direction and shape of the fitted curve."}
{"experiment": "qHTS for Inhibitors of TGF-b; also: nearly all actives have a fitted effect of over 65% in size", "conditions": "HepG2 CAGA-GFP TGF-b/SMAD3 reporter, GFP fluorescence, 18 h, TGF-beta stimulated, 500 pg/mL final; series mostly up to 46.1 µM", "how_it_was_run": "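Inhibition was scored as loss of TGF-beta-induced (500 pg/mL final, 18 hours, 37 degrees C) GFP in HEPG2 cells carrying a CAGA-GFP reporter, in DMEM with 1% FBS. Well GFP was summed per cell; Activity was normalised to unstimulated and stimulated DMSO wells, then concentration-response fitting.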"}
{"compound": "Cc1cccc(NC(=O)C2=C(O)c3ccccc3N(C)S2(=O)=O)c1", "Potency": "inactive"}
{"compound": "Cc1[nH]n(-c2ccccc2)c(=O)c1/C=N/Nc1nncc(-c2ccccc2)n1", "Potency": "inconclusive: 0.501 µM [inhibitor, full curve, poor fit]"}
{"compound": "Nn1cnnc1SCC(=O)Nc1ccc2c(c1)OCCO2", "Potency": "inconclusive: 5.62 µM [inhibitor, single point]"}
{"compound": "COCCNC(=O)CCCn1c(SCc2ccccc2Cl)nc2c(sc3ccccc32)c1=O", "Potency": "inactive"}
{"compound": "C=CCn1c(SCC(=O)c2c(N)n(C)c(=O)n(C)c2=O)nc2sc(C)c(C)c2c1=O", "Potency": "inactive"}
{"compound": "CC1CCN2c3cc(Cl)ccc3CC3(C(=O)OC(C)(C)OC3=O)C2C1", "note": "(centres undefined)", "Potency": "inactive"}
{"compound": "Cc1ccc(NC(=O)CNc2cccc(S(=O)(=O)N3CCCCC3)c2)cc1F", "Potency": "inconclusive: 7.08 µM [inhibitor, partial curve]"}
{"compound": "CCCCOc1ccc(C(=O)N(Cc2ccco2)Cc2ccco2)cc1", "Potency": "inconclusive: 22.4 µM [inhibitor, single point]"}
{"compound": "COC(=O)c1ccc([C@H]2Nc3ccc(S(=O)(=O)Nc4cccc(C)c4)cc3[C@H]3C=CC[C@H]32)cc1", "Potency": "active: 6.31 µM"}
{"compound": "CC(C)CNC(=O)CSc1nc2scc(-c3ccccc3)c2c(=O)[nH]1", "Potency": "inconclusive: 17.8 µM [inhibitor, partial curve, poor fit]"}
{"compound": "c1cc(-c2cc3cc4c(cc3cn2)OCO4)cs1", "Potency": "inactive"}
{"compound": "CC(C)(C)[C@H]1CCC(=O)N([C@H](CN=[N+]=[N-])Cc2ccccc2)CC1", "Potency": "inconclusive: 7.08 µM [inhibitor, partial curve] and inconclusive: 35.5 µM [inhibitor, single point]"}
{"compound": "O=C(/C=N/O)NCCCN1CCOCC1", "Potency": "inconclusive: 1.26 µM [inhibitor, full curve, poor fit]"}
{"compound": "CC1CCN(CCOc2ccccc2-c2ccccc2)CC1", "Potency": "inactive"}
{"compound": "CCOC(=O)[C@@H]1[C@H]2COc3ccccc3[C@@H]2N2C(=O)N(c3cccc(F)c3)C(=O)[C@]12C", "Potency": "inactive"}
{"compound": "CCN(CC)CCNC(=O)c1ccc(NC(=O)c2ccccc2-c2ccc(C(F)(F)F)cc2)cc1", "Potency": "inconclusive: 25.1 µM [inhibitor, single point]"}
{"compound": "CC(C)c1ccc(-c2c(C#N)c(N)nc3c2CCCCC3)cc1", "Potency": "inconclusive: 35.5 µM [inhibitor, single point]"}
{"compound": "COc1ccc(/C=C2/CSC/C(=C/c3ccc(OC)c(OC)c3)C2=O)cc1OC", "Potency": "active: 6.31 µM"}
{"compound": "CCOC(=O)C(C)Sc1cc(CS(=O)(=O)c2ccccc2)nc(-c2ccccc2)n1", "note": "(centres undefined)", "Potency": "inconclusive: 35.5 µM [inhibitor, single point]"}
{"compound": "O=C(Nc1cc(C(F)(F)F)ccc1Cl)c1cnn(-c2ccccc2)c1-n1cccc1", "Potency": "inconclusive: 0.282 µM [inhibitor, full curve, poor fit]"}
{"compound": "O=C(Nc1ccccc1Br)c1ccc(OC(=S)N2CCOCC2)cc1", "Potency": "inactive"}
{"compound": "Cc1nn(-c2ccc(F)cc2)c(C)c1NS(=O)(=O)c1ccc2ccccc2c1", "Potency": "active: 10 µM"}
{"compound": "CCCCNS(=O)(=O)c1ccc2nc(SCC(=O)Nc3ccccc3Cl)[nH]c2c1", "Potency": "inconclusive: 20 µM [inhibitor, single point]"}
{"compound": "Cc1ccc(C)c(OCc2cc(C(=O)N3CCN(c4ccccc4)CC3)no2)c1", "Potency": "inactive"}
{"compound": "O=C(c1ccc(Cl)c(S(=O)(=O)N2CCc3ccccc32)c1)N1CCN(c2ccccc2O)CC1", "Potency": "inconclusive: 35.5 µM [inhibitor, single point]"}
{"compound": "COc1ccc(C2=NOC(COc3ccc4c(C)cc(=O)oc4c3)C2)c(OC)c1", "note": "(centres undefined)", "Potency": "inconclusive: 15.8 µM [inhibitor, single point]"}
{"compound": "COc1ccccc1C(=O)NC(=O)COC(=O)C1CC1", "Potency": "inconclusive: 35.5 µM [inhibitor, single point]"}
{"compound": "CCC(=O)c1ccc(OCC(=O)NNC(=O)c2cc(C)oc2C)cc1", "Potency": "inactive"}
{"compound": "COc1ccc(-c2nc3ccc(Cl)cn3c2Cc2ccsc2)cc1OC", "Potency": "inconclusive: 1.58 µM [inhibitor, full curve, poor fit]"}
{"compound": "CN(C)CCNc1nc2c(c(=O)[nH]c(=O)n2C)n1CCOc1ccccc1", "Potency": "inactive"}
{"compound": "Cc1[nH]c2ccc(F)cc2c1CCN(Cc1ccncc1)C(=S)Nc1ccc(F)cc1", "Potency": "inconclusive: 12.6 µM [inhibitor, single point]"}
{"compound": "CC(C)[C@H](CO)Nc1nc(NCc2ccc(S(N)(=O)=O)cc2)c2ncn(C(C)C)c2n1", "Potency": "inconclusive: 8.91 µM [inhibitor, partial curve, poor fit]"}
{"compound": "Brc1cccc[n+]1CCCC[n+]1ccccc1Br", "Potency": "inactive"}
{"compound": "C=CCn1c(SC(C)CC)nc(O)cc1=O", "note": "(centres undefined)", "Potency": "inconclusive: 0.447 µM [inhibitor, partial curve, poor fit]"}
{"compound": "N=c1ccn(Cc2ccc(Cl)cc2)cc1", "Potency": "inconclusive: 35.5 µM [inhibitor, single point]"}
{"compound": "CC(=O)Nc1ccc(S(=O)(=O)N(C)S(=O)(=O)c2ccc(F)cc2)cc1", "Potency": "inconclusive: 0.112 µM [inhibitor, full curve, poor fit]"}
{"compound": "CN1CCN(C2=C(Cl)C(=O)N(c3ccc(Cl)c(Cl)c3)C2=O)CC1", "Potency": "inconclusive: 25.1 µM [inhibitor, single point]"}
{"compound": "Cc1ccc(CNC(=O)c2ccc(Cl)c(S(=O)(=O)N3CCCCC3)c2)cc1", "Potency": "inconclusive: 22.4 µM [inhibitor, single point]"}
{"compound": "COC(=O)Cc1c(C)nc2nc(-c3ccc(C)cc3)[nH]n2c1=O", "Potency": "inactive"}
{"compound": "COc1ccc(NC(=S)N(CCc2c(C)[nH]c3ccc(C)cc23)Cc2cccs2)cc1", "Potency": "inconclusive: 14.1 µM [inhibitor, single point]"}
{"compound": "CCOc1cccc2sc(NC(=O)CS(=O)(=O)c3ccc(C)cc3)nc12", "Potency": "inactive"}
{"compound": "COc1ccc(-c2cc(C(=O)N(C)CC(=O)Nc3cccc(F)c3)c3ccccc3n2)cc1", "Potency": "inconclusive: 15.8 µM [inhibitor, partial curve]"}
{"compound": "O=c1c2ccccc2nc(-c2ccc(Cl)cc2)n1CCCOc1ccccc1F", "Potency": "inactive"}
{"compound": "CCOC(=O)Cn1c(=N)n(CCOc2cccc(C)c2)c2ccccc21", "Potency": "inactive"}
